Measured values: paper PMC4336329 (PLoS ONE, 2015)
Among all 310,000 compounds or so, about 2,200 (0.71%) showed an effect of 50% or more. Effects have a minus sign here. The list shows a part of the results.

Target: human ether-à-go-go-related gene (hERG) potassium channel (human, UniProt Q12809)
Experiment: primary screen, population patch clamp on CHO cells stably expressing hERG

Chain of human ether-à-go-go-related gene (hERG) potassium channel (Q12809 whole entry, looked up): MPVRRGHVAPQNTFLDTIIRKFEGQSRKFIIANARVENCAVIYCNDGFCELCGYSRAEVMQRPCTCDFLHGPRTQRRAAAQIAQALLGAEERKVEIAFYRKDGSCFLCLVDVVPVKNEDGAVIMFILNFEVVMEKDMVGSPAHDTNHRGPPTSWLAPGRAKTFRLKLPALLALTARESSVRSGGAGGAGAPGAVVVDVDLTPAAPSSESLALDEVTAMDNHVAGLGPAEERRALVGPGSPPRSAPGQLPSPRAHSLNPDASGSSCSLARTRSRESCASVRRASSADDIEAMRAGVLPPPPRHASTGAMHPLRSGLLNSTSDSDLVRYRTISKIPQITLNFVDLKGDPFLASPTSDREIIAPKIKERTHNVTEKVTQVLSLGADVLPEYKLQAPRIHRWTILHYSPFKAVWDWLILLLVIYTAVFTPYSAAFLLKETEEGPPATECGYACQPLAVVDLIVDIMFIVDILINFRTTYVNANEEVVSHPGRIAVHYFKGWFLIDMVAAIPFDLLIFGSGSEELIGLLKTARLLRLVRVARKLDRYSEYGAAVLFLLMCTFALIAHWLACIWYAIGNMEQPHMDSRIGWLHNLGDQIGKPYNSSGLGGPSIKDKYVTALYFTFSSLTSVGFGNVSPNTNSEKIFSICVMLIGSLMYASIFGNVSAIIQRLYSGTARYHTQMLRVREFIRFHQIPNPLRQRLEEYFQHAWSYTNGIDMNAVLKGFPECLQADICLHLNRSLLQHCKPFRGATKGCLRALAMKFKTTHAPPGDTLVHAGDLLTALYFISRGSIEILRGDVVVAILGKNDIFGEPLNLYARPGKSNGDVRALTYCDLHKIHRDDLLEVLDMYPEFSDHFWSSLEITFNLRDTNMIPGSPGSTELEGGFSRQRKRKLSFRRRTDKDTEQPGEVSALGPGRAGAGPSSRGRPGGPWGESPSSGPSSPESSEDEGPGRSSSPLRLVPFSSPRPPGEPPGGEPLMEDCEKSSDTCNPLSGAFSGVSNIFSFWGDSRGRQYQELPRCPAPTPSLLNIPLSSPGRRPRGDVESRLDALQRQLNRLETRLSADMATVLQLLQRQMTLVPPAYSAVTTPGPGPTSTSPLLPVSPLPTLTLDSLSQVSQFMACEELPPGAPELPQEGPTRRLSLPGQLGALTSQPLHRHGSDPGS

**Q.** Which “hERG current change (%, negative = inhibition) at 1uM” value does the source give for `Cn1c(=O)cc(OCC(=O)N2CCCc3ccccc32)c2ccccc21` here?
**A.** 14%

**Q.** `CCN(C(=O)CSc1nnc(C2CC2)n1-c1ccccc1)C1CCS(=O)(=O)C1` (stereo not shown) was tested. Which “hERG current change (%, negative = inhibition) at 1uM” value did it give?
**A.** -1.64%

**Q.** How did the “hERG current change (%, negative = inhibition) at 1uM” value turn out when `Cc1nc(N2CCOCC2)nc(OCCN(C)C)c1[N+](=O)[O-]` was run?
**A.** 7.82%

**Q.** `COCCNC(=O)c1c(CS(=O)(=O)c2ccccc2)noc1C(=O)NCc1ccccc1` was tested. Which “hERG current change (%, negative = inhibition) at 1uM” value did it give?
**A.** 10.6%

**Q.** Which “hERG current change (%, negative = inhibition) at 1uM” value does the source give for `COc1ccccc1OCCCC(=O)Nc1ccc([N+](=O)[O-])cc1Br` here?
**A.** 7.57%

**Q.** For `Cn1c(=O)c2c(nc(Br)n2CCSc2nc3ccccc3o2)n(C)c1=O`, which “hERG current change (%, negative = inhibition) at 1uM” value is on record?
**A.** -1.34%

**Q.** For `N#Cc1cccc(C(=O)OCC(=O)NC(=O)NC2CCCCC2)c1`, which “hERG current change (%, negative = inhibition) at 1uM” value is on record?
**A.** 7.94%

**Q.** With `CC1(C)C2CC=C(/C=N/NC(=O)c3ccccc3O)C1C2` (stereo not shown) as the molecule, how does the “hERG current change (%, negative = inhibition) at 1uM” value read?
**A.** 10.2%

**Q.** `NC(=O)CC(NC(=O)Cc1cccc2ccccc12)c1ccc(N2CCC(N3CCCCC3)CC2)c([N+](=O)[O-])c1` (stereo not shown) was tested. Which “hERG current change (%, negative = inhibition) at 1uM” value did it give?
**A.** 7.79%

**Q.** How did the “hERG current change (%, negative = inhibition) at 1uM” value turn out when `CCCCc1c(O)c2cccc3c2n(c1=O)CCC3` was run?
**A.** 12.6%

**Q.** `Cc1nnsc1NC(=O)OCC(C)(C)C` was tested. Which “hERG current change (%, negative = inhibition) at 1uM” value did it give?
**A.** 9.64%

**Q.** For `COc1ccccc1C(=O)Nc1ccc(NC(=O)C2CCCCC2)nc1`, which “hERG current change (%, negative = inhibition) at 1uM” value is on record?
**A.** 12%

**Q.** With `CC(C)(C)c1nnc2sc(SCC(=O)c3ccc(Cl)cc3)nn2c1=O` as the molecule, how does the “hERG current change (%, negative = inhibition) at 1uM” value read?
**A.** 11.1%

**Q.** Which “hERG current change (%, negative = inhibition) at 1uM” value does the source give for `O=C1c2ccccc2C(=O)N1CCOc1ccccc1` here?
**A.** 18.1%

**Q.** Which “hERG current change (%, negative = inhibition) at 1uM” value does the source give for `COc1ccc(N(Cc2cc3cc(OC)ccc3[nH]c2=O)C(=O)C2CCCO2)cc1` (stereo not shown) here?
**A.** -1.05%

**Q.** Which “hERG current change (%, negative = inhibition) at 1uM” value does the source give for `CCN1C(=O)c2n[nH]c(C(=O)OC)c2C1=O` here?
**A.** 15.9%

**Q.** Which “hERG current change (%, negative = inhibition) at 1uM” value does the source give for `O=C(c1cc(-c2ccncc2)nc2ccccc12)N1CCN(c2ccc(N3CCOCC3)nn2)CC1` here?
**A.** -22.9%

**Q.** `Cc1c(CNCCc2ccccc2)c(C(=O)O)c(C)n1-c1ccccc1` was tested. Which “hERG current change (%, negative = inhibition) at 1uM” value did it give?
**A.** 13.3%

**Q.** Which “hERG current change (%, negative = inhibition) at 1uM” value does the source give for `CCS(=O)(=O)NCCc1cc2c(OC)ccc(OC)c2[nH]c1=O` here?
**A.** 18%

**Q.** For `O=C(NC1CCCCC1)c1cccc(OCc2ccccc2)c1`, which “hERG current change (%, negative = inhibition) at 1uM” value is on record?
**A.** 10.9%

**Q.** Which “hERG current change (%, negative = inhibition) at 1uM” value does the source give for `CC1CC(C)CN(CCCNC(=O)CCNC(=O)Cn2ccc3ccccc3c2=O)C1` (stereo not shown) here?
**A.** 3.99%

**Q.** `CC1(C)C2CCC1(C)C(OC(=O)C[n+]1ccccc1N)C2.[Br-]` (stereo not shown) was tested. Which “hERG current change (%, negative = inhibition) at 1uM” value did it give?
**A.** -6.78%

**Q.** How did the “hERG current change (%, negative = inhibition) at 1uM” value turn out when `CCC(C)Nc1nc(OC)nc(N(C)C#N)n1` (stereo not shown) was run?
**A.** 14.1%

**Q.** Which “hERG current change (%, negative = inhibition) at 1uM” value does the source give for `CCN(CCCNC(=O)CSc1cc(=O)n(C)c2cc(Cl)ccc12)Cc1ccccc1` here?
**A.** -10.8%

**Q.** Which “hERG current change (%, negative = inhibition) at 1uM” value does the source give for `Cc1ccccc1NC(=O)c1c(Cl)nc(C)c(Cl)c1C` here?
**A.** 3.38%
